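Where inhibition never reached the appropriate level, the endpoint shown equals the highest concentration tested. Otherwise, values were interpolated linearly from a five-concentration, 48-hour dose response in 96-well plates. GI50 is the concentration that inhibits growth by half.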 The source made the active and inactive calls. Cut-off read from the data, not from the text of the source: active = GI50 up to about 1.1 µM and inactive = higher.
The compounds below were run on NCI-H322M (assay: growth of human tumour cells (NCI), 48 h).

| Compound | GI50 |
| --- | --- |
| CC1=NN(C(=O)c2ccc(Cl)cc2)C(=O)/C1=C/c1ccc(O)cc1 | inactive: > 100 µM |
| OCCCCCNc1cc(O)nc(O)n1 | inactive: > 100 µM |
| CC(=O)ON(C(C)=O)c1ccc(-c2nc3ccccc3s2)cc1 | inactive: 31.9 µM |
| CCN1c2ccccc2-c2c3c1cc(C)cc3c1ccccc1[n+]2CC | inactive: 2.15 µM |
| C1=Cc2ccccc2C1.C=C(C)c1ccccc1.[N-]=[N+]=Nc1ccccc1 | inactive: 84.5 µM |
| CCN1CC(C)Cn2c(=O)[nH]c3cc(Br)cc1c32 (configuration not stated) | inactive: 48.9 µM |
| C=C(C)C1=CCC[C@]2(C1)N=C(OC)[C@@H](C(C)C)N=C2OC | inactive: > 100 µM |
| CC1(C)C(C(=O)OC(C#N)c2cccc(OCC(=O)OCc3ccccc3)c2)C1(C)C (configuration not stated) | inactive: > 100 µM |
| CN(C)c1nncc2[nH]cnc12 | inactive: > 100 µM |
| CSC(SC)=C(C#N)C(=O)Nc1ccc(C)cc1 | inactive: > 100 µM |
| CC1C/C(=C\c2ccc(O)c(O)c2)C(=O)/C(=C/c2ccc(O)c(O)c2)C1 (configuration not stated) | inactive: 13 µM |
| COC(=O)C(=O)C(C#N)c1ccc(Cl)c(Cl)c1 (configuration not stated) | inactive: > 100 µM |
| CN(/N=C/c1ccnc2ccccc12)c1c([N+](=O)[O-])cc([N+](=O)[O-])cc1[N+](=O)[O-] | inactive: > 100 µM |
| CCOC(=O)NC(=O)c1cn(CCN2CCN(C(=O)CCCCCCCCCCNc3ncnc4[nH]cnc34)CC2)c(=O)[nH]c1=O | inactive: > 100 µM |
| O=C1CCSCCC(=O)Nc2ccccc2N1 | inactive: > 100 µM |
| CN1C(NCCO)=NS(=O)(=O)c2ccccc21 | inactive: > 100 µM |
| N#CC(C#N)=Cc1ccc(Oc2ccccc2)cc1 | inactive: > 91.4 µM |
| CCC1CN2CCc3cc(OC)c(OC)cc3C2CC1CC1c2cc(OC)c(OC)cc2CCN1C(=O)C1CCCN1 (configuration not stated) | inactive: 32.1 µM |
| COC1=C2C[C@](OC)(C#CC=CC#CC2O)CC1(C)C (some centres not stated) | inactive: > 100 µM |

| Compound | GI50 |
| --- | --- |
| COc1cc(C2OC(N)=C(C#N)C3=C2C(C)CCC3)cc(OC)c1OC (configuration not stated) | inactive: > 100 µM |
| Cn1c(=O)c2c(nc3n(CC(O)CCl)c(=O)ccn23)n(C)c1=O (configuration not stated) | inactive: 57.1 µM |
| Cc1ccnc(NS(=O)(=O)c2ccc(NC3=CC(=O)C(=O)c4ccccc43)cc2)n1 | inactive: > 100 µM |
| CCOC(=O)C1=C(OC(OCC)C(CC)[Se]c2ccccc2)CCC1 (configuration not stated) | inactive: > 100 µM |
| CO/C=C/C=C(\C#N)C(=O)OC | inactive: > 100 µM |
| CC1=C(c2nc3ccccc3s2)C(=O)OC1(C)C | inactive: > 100 µM |
| O=c1cc(-c2ccccc2)[nH]c2ccc(N3CCCC3)cc12 | active: 0.0574 µM |
| COc1cc(-c2nnc3n2NC=C(C(=O)O)S3)cc(OC)c1OC | inactive: > 100 µM |
| C[As](C)SCC(NC(=O)CCC(N)C(=O)O)C(=O)NCC(=O)O.c1ccncc1 (configuration not stated) | inactive: 1.31 µM |
| CC(=O)O[C@H]1C(=O)[C@@]2(C)[C@H]([C@H](OC(=O)c3ccc(F)cc3)[C@]3(O)C[C@H](OC(=O)[C@H](O)[C@@H](NC(=O)c4ccccc4)c4ccccc4)C(C)=C1C3(C)C)[C@]1(OC(C)=O)CO[C@@H]1C[C@@H]2O | active: 0.0352 µM |
| CCOC(=O)/C(C#N)=C(O)/C(=C/c1ccccc1Cl)NC(=O)c1ccccc1 | inactive: > 100 µM |
| O=c1[nH]nc(Cc2ccccc2)n1-n1cnnc1 | inactive: > 100 µM |
| COCO[C@@H]1C[C@H]2C(O)Nc3ccccc3C(=O)N2C1 (some centres not stated) | inactive: > 100 µM |
| O=c1[nH]nc(Cc2ccccc2)n1/N=C/c1ccncc1 | inactive: > 100 µM |
| COc1nc(OC)nc(Sc2ccc(Sc3ccc(Sc4nc(OC)nc(OC)n4)cc3)cc2)n1 | inactive: > 100 µM |
| CN(N=O)C(=O)Nc1ccc(C(=O)O)cc1 | inactive: > 100 µM |
| COC1[C@H](NC(=O)OC(C)(C)C)C(=O)N1Cc1ccccc1 (some centres not stated) | inactive: > 100 µM |
| COc1cc2c(cc1C[N+](C)(C)CSc1ccccc1)-c1ccccc1CC2 | inactive: 13.1 µM |

Source: ChEMBL document CHEMBL1201862, “PubChem BioAssay data set” (2004)
